Data from the supplement of paper PMC3334620.
The full ranking holds about 33,000 sequences; the median of “E-score (-0.5 to 0.5)” is about -0.011, and the highest 2% start at about 0.28. The list shows a part of the results.

target: T1, Gcr1 (UniProt P07261); assay: PBM E-score (8-mer binding enrichment) (E-score (-0.5 to 0.5)); higher = stronger / more preferred TF binding; most listed sequences are background and not binding sites; conditions: protein concentration: 100 nM; construct: GST-full length
T1 sequence: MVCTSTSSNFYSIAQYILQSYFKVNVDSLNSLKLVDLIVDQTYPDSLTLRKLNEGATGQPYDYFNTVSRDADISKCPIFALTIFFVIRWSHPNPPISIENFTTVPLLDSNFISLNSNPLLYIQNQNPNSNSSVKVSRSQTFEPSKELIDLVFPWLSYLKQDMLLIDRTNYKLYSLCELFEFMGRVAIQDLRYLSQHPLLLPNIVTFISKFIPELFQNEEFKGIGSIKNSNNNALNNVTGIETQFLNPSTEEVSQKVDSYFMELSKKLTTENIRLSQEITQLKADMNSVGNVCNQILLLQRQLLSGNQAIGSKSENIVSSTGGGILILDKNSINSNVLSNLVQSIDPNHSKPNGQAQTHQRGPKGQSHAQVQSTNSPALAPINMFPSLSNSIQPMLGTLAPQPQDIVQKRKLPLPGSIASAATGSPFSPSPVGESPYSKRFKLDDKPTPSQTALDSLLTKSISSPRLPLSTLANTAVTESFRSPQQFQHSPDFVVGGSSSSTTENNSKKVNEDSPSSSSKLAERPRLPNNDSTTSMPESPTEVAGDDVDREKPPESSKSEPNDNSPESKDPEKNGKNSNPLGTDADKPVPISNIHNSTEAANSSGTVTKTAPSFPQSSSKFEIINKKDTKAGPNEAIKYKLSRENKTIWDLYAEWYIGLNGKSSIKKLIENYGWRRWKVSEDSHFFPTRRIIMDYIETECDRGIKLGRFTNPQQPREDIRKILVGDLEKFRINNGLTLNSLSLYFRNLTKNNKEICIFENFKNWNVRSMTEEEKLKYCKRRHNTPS
In short: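 Universal all-10-mer Agilent arrays, fresh or stripped once, were converted to double-stranded form by primer extension. GST-tagged yeast transcription factors from PURExpress in vitro transcription/translation, full-length or DNA-binding domain only, were applied at about 100-200 nM and detected with fluorescent anti-GST. After masliner normalisation, the Universal PBM Analysis Suite scored each ungapped eight-base word together with its reverse complement by E-score.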

Q: For CTAACTGC, which “PBM E-score” value is on record?
A: The value was -0.107.

Q: Which “PBM E-score” value does the source give for GTCCTTGA here?
A: Its value is -0.0351.

Q: How did the “PBM E-score” value turn out when AAAAGCGA was run?
A: The value was 0.041.

Q: How did the “PBM E-score” value turn out when CATCGTGC was run?
A: The value was -0.225.

Q: AACCGTCG was tested. Which “PBM E-score” value did it give?
A: Its value is -0.137.

Q: For CCTATGCG, which “PBM E-score” value is on record?
A: The value was -0.0507.

Q: ATCCCGCA was tested. Which “PBM E-score” value did it give?
A: Its value is 0.217.

Q: How did the “PBM E-score” value turn out when CTCCGTGA was run?
A: The value was -0.00424.

Q: With ACCTACAG as the sequence, how does the “PBM E-score” value read?
A: The value was -0.277.

Q: For AAGACTGA, which “PBM E-score” value is on record?
A: Its value is -0.126.

Q: For CCGAAAAC, which “PBM E-score” value is on record?
A: Its value is 0.177.

Q: For GAGACTAC, which “PBM E-score” value is on record?
A: The value was -0.0961.

Q: Which “PBM E-score” value does the source give for ACATACAG here?
A: The value was -0.188.

Q: With GTACTAAC as the sequence, how does the “PBM E-score” value read?
A: Its value is 0.0599.

Q: With CATCAAGG as the sequence, how does the “PBM E-score” value read?
A: The value was 0.0321.

Q: With CCAATTAC as the sequence, how does the “PBM E-score” value read?
A: Its value is 0.124.

Q: Which “PBM E-score” value does the source give for GTCGCTGA here?
A: Its value is 0.175.

Q: How did the “PBM E-score” value turn out when GACCACAA was run?
A: The value was 0.0254.

Q: How did the “PBM E-score” value turn out when AATGGTAG was run?
A: The value was 0.12.

Q: With AGCGATGG as the sequence, how does the “PBM E-score” value read?
A: The value was -0.11.

Q: For AAATGCTG, which “PBM E-score” value is on record?
A: Its value is 0.00058.

Q: For CCTGAGTA, which “PBM E-score” value is on record?
A: The value was 0.198.

Q: How did the “PBM E-score” value turn out when AATTAAGC was run?
A: Its value is -0.0303.

Q: For CTTGGTGA, which “PBM E-score” value is on record?
A: Its value is 0.138.

Q: Which “PBM E-score” value does the source give for GAATAAGA here?
A: The value was 0.0225.

Q: With CTGGCCGC as the sequence, how does the “PBM E-score” value read?
A: The value was 0.205.

Q: How did the “PBM E-score” value turn out when CTCAGTAA was run?
A: Its value is -0.113.

Q: For AAATTATA, which “PBM E-score” value is on record?
A: The value was 0.0346.

Q: For CATCTGGC, which “PBM E-score” value is on record?
A: Its value is 0.0691.

Q: TAGAATAA was tested. Which “PBM E-score” value did it give?
A: The value was 0.198.

Q: For CATAGCCC, which “PBM E-score” value is on record?
A: The value was -0.272.

Q: For ATAAACTG, which “PBM E-score” value is on record?
A: Its value is 0.143.

Q: AACTATGC was tested. Which “PBM E-score” value did it give?
A: The value was -0.00366.

Q: How did the “PBM E-score” value turn out when CTTTAACC was run?
A: Its value is -0.0388.

Q: Which “PBM E-score” value does the source give for AAGCCAAA here?
A: The value was -0.0579.

Q: ACGTTGAG was tested. Which “PBM E-score” value did it give?
A: Its value is -0.0959.

Q: How did the “PBM E-score” value turn out when CCGGAAGG was run?
A: The value was 0.0607.

Q: GGGCACAC was tested. Which “PBM E-score” value did it give?
A: The value was -0.0584.

Q: For CACAGGCC, which “PBM E-score” value is on record?
A: The value was 0.0731.

Q: GAGCGGGA was tested. Which “PBM E-score” value did it give?
A: Its value is -0.121.

Q: With TCATTGAA as the sequence, how does the “PBM E-score” value read?
A: Its value is -0.0934.

Q: How did the “PBM E-score” value turn out when CTGGAATC was run?
A: Its value is 0.407.

Q: Which “PBM E-score” value does the source give for CATTTCGA here?
A: Its value is -0.165.

Q: With CGAATGGA as the sequence, how does the “PBM E-score” value read?
A: Its value is -0.00413.

Q: For TGTTTTAA, which “PBM E-score” value is on record?
A: Its value is 0.059.

Q: Which “PBM E-score” value does the source give for ATTCCCGA here?
A: The value was 0.168.

Q: With ACGTTTAC as the sequence, how does the “PBM E-score” value read?
A: The value was -0.00072.

Q: How did the “PBM E-score” value turn out when AATTAAAA was run?
A: Its value is 0.149.

Q: With CATACACA as the sequence, how does the “PBM E-score” value read?
A: The value was -0.0106.

Q: TACACTCA was tested. Which “PBM E-score” value did it give?
A: The value was 0.00634.

Q: How did the “PBM E-score” value turn out when GGGGCGGA was run?
A: Its value is -0.11.

Q: How did the “PBM E-score” value turn out when ATGTCGAA was run?
A: Its value is 0.00821.

Q: With CATCCGGA as the sequence, how does the “PBM E-score” value read?
A: Its value is 0.0473.

Q: ACCCACCA was tested. Which “PBM E-score” value did it give?
A: Its value is -0.124.

Q: With CCTCGGTC as the sequence, how does the “PBM E-score” value read?
A: The value was -0.223.

Q: How did the “PBM E-score” value turn out when CTTAGAAC was run?
A: The value was 0.0326.

Q: With CATTAGAG as the sequence, how does the “PBM E-score” value read?
A: The value was -0.184.

Q: Which “PBM E-score” value does the source give for AGACTCAA here?
A: The value was -0.0684.

Q: CTAAAACA was tested. Which “PBM E-score” value did it give?
A: Its value is 0.126.

Q: AATGAATG was tested. Which “PBM E-score” value did it give?
A: The value was 0.0488.

Q: Which “PBM E-score” value does the source give for CATTCTGG here?
A: Its value is 0.0135.

Q: How did the “PBM E-score” value turn out when CTGAAGGA was run?
A: Its value is -0.0128.

Q: For AAGTGGCG, which “PBM E-score” value is on record?
A: The value was 0.241.

Q: With CTCTAACA as the sequence, how does the “PBM E-score” value read?
A: Its value is 0.0391.

Q: ACCACGAT was tested. Which “PBM E-score” value did it give?
A: Its value is 0.00321.

Q: With GCTCGTGA as the sequence, how does the “PBM E-score” value read?
A: Its value is 0.00805.

Q: How did the “PBM E-score” value turn out when AATTCTTC was run?
A: The value was 0.0967.

Q: CTCTAGTA was tested. Which “PBM E-score” value did it give?
A: The value was -0.118.

Q: Which “PBM E-score” value does the source give for AGTAGTCC here?
A: Its value is -0.00744.

Q: CAGTTTGG was tested. Which “PBM E-score” value did it give?
A: The value was -0.018.

Q: Which “PBM E-score” value does the source give for GCGTGAGC here?
A: The value was 0.162.

Q: How did the “PBM E-score” value turn out when GTCCACCA was run?
A: The value was -0.0485.

Q: Which “PBM E-score” value does the source give for CCTCTTTC here?
A: The value was 0.0512.

Q: How did the “PBM E-score” value turn out when CGATATGC was run?
A: Its value is -0.00269.

Q: GGTTCTAA was tested. Which “PBM E-score” value did it give?
A: The value was 0.0995.

Q: Which “PBM E-score” value does the source give for CATTACAC here?
A: Its value is 0.186.

Q: With ACCGCTAT as the sequence, how does the “PBM E-score” value read?
A: Its value is 0.123.

Q: Which “PBM E-score” value does the source give for TAAGGAGA here?
A: Its value is 0.175.

Q: For CCCTTGAA, which “PBM E-score” value is on record?
A: Its value is -0.0847.

Q: Which “PBM E-score” value does the source give for ATCCACCG here?
A: Its value is -0.0897.

Q: For CGTGGTAA, which “PBM E-score” value is on record?
A: Its value is -0.031.

Q: With ATGTTTCG as the sequence, how does the “PBM E-score” value read?
A: Its value is 0.12.

Q: How did the “PBM E-score” value turn out when ATTTGTGC was run?
A: Its value is -0.00492.

Q: With CCACCTGG as the sequence, how does the “PBM E-score” value read?
A: Its value is 0.0909.

Q: Which “PBM E-score” value does the source give for GAAAATGC here?
A: Its value is 0.145.

Q: Which “PBM E-score” value does the source give for AGTCAGAC here?
A: The value was -0.102.

Q: Which “PBM E-score” value does the source give for ATCAACGG here?
A: Its value is 0.139.

Q: For CCTATCAG, which “PBM E-score” value is on record?
A: Its value is 0.102.

Q: CAGATACC was tested. Which “PBM E-score” value did it give?
A: Its value is 0.187.

Q: Which “PBM E-score” value does the source give for AGCCGATC here?
A: Its value is -0.166.

Q: ACTGGTTG was tested. Which “PBM E-score” value did it give?
A: The value was 0.2.

Q: With AGAGCCTG as the sequence, how does the “PBM E-score” value read?
A: Its value is -0.076.

Q: Which “PBM E-score” value does the source give for GCAATGCA here?
A: Its value is -0.273.

Q: How did the “PBM E-score” value turn out when GTGAATGA was run?
A: The value was -0.227.
